This passage reports binding signal results from paper PMC12820563, “FoxP3 forms a head-to-head dimer in vivo and stabilizes its multimerization on adjacent microsatellites”.

This is one part of the list.

For this experiment, the target named is T1, MBP-FoxP1dN (Mus musculus, UniProt P58462 326-579).
T1 sequence: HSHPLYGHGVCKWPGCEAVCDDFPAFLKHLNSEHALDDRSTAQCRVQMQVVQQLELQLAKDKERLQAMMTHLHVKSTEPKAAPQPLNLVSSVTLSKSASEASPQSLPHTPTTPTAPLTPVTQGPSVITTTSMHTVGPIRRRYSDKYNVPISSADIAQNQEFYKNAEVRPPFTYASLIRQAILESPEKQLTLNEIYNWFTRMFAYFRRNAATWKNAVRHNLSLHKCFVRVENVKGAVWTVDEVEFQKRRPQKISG
As to the kind of experiment: PD-seq (MBP pull-down with sequencing); 20 mM Tris-HCl pH 7.5, 100 mM NaCl, 1.5 mM MgCl2, 0.4 uM protein, 0.1 uM dsDNA library, 30 min, room temperature, amylose pull-down; high values mean tight binding. To be noted: protein: recombinant; tags: His6-MBP; chain copies: 2; dsDNA, one strand shown. In short, it runs like this:
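Amylose resin was used to capture complexes formed during 30 min at room temperature in Tris pH 7.5 buffer with NaCl and MgCl2 between 0.4 µM His6-MBP-tagged mouse FoxP3 or FoxP1 fragment lacking the N-terminus, expressed in E. coli, and 0.1 µM Klenow-filled double-stranded degenerate DNA library. After three washes, the DNA was released with proteinase K, barcoded by PCR and sequenced on Illumina. Binding is pooled-replicate reads-per-million enrichment, pull-down over input.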
Regarding “GATGATTGTTCTCCCAGCTGATGAATTAAATTACTCGAGTAAACAAATTTTCCTAATCTTTCTGTTCAAGCGCCATCTAC”, the binding signal is 0.997 RPM ratio (pull-down/input).
In the case of “GATGATTGTTCTCCCAGCTGATGAATTCCAGCGCTCGAGTAAACAAATTTTCCTAATCTTTCTGTTCAAGCGCCATCTAC” it was 0.779 RPM ratio (pull-down/input).
As for “GATGATTGTTCTCCCAGCTGATGAATTTCGCATCTCGAGTAAACAAATTTTCCTAATCTTTCTGTTCAAGCGCCATCTAC”, the binding signal is 1.21 RPM ratio (pull-down/input).
With “GATGATTGTTCTCCCAGCTGATGAATTGTGCCCATCGAGTAAACAAATTTTCCTAATCTTTCTGTTCAAGCGCCATCTAC”, the binding signal was 1.06 RPM ratio (pull-down/input).
In the case of “GATGATTGTTCTCCCAGCTGATGAATTTTAATGCTCGAGTAAACAAATTTTCCTAATCTTTCTGTTCAAGCGCCATCTAC” it was 1.05 RPM ratio (pull-down/input); in that of “GATGATTGTTCTCCCAGCTGATGAATTATTGGTCTCGAGTAAACAAATTTTCCTAATCTTTCTGTTCAAGCGCCATCTAC”, 1.2 RPM ratio (pull-down/input); in that of “GATGATTGTTCTCCCAGCTGATGAATTTAGTTGCTCGAGTAAACAAATTTTCCTAATCTTTCTGTTCAAGCGCCATCTAC”, 1.17 RPM ratio (pull-down/input).
With “GATGATTGTTCTCCCAGCTGATGAATTACAAGGTTCGAGTAAACAAATTTTCCTAATCTTTCTGTTCAAGCGCCATCTAC” the figure was 1.09 RPM ratio (pull-down/input); with “GATGATTGTTCTCCCAGCTGATGAATTTTCGCTTTCGAGTAAACAAATTTTCCTAATCTTTCTGTTCAAGCGCCATCTAC”, 1.08 RPM ratio (pull-down/input).
In the case of “GATGATTGTTCTCCCAGCTGATGAATTGGGAATCTCGAGTAAACAAATTTTCCTAATCTTTCTGTTCAAGCGCCATCTAC” it was 0.85 RPM ratio (pull-down/input).
For the sequence “GATGATTGTTCTCCCAGCTGATGAATTTTGCCTGTCGAGTAAACAAATTTTCCTAATCTTTCTGTTCAAGCGCCATCTAC”, the binding signal is 0.891 RPM ratio (pull-down/input).
In the case of “GATGATTGTTCTCCCAGCTGATGAATTCCGAAGTTCGAGTAAACAAATTTTCCTAATCTTTCTGTTCAAGCGCCATCTAC” it was 0.765 RPM ratio (pull-down/input); in that of “GATGATTGTTCTCCCAGCTGATGAATTTTTCGGGTCGAGTAAACAAATTTTCCTAATCTTTCTGTTCAAGCGCCATCTAC”, 0.808 RPM ratio (pull-down/input); in that of “GATGATTGTTCTCCCAGCTGATGAATTTATCTACTCGAGTAAACAAATTTTCCTAATCTTTCTGTTCAAGCGCCATCTAC”, 1.07 RPM ratio (pull-down/input).
For “GATGATTGTTCTCCCAGCTGATGAATTATTGTAATCGAGTAAACAAATTTTCCTAATCTTTCTGTTCAAGCGCCATCTAC”, the binding signal is 1.91 RPM ratio (pull-down/input).
In the case of “GATGATTGTTCTCCCAGCTGATGAATTTCATGGATCGAGTAAACAAATTTTCCTAATCTTTCTGTTCAAGCGCCATCTAC” it was 0.799 RPM ratio (pull-down/input); in that of “GATGATTGTTCTCCCAGCTGATGAATTAGGTCATTCGAGTAAACAAATTTTCCTAATCTTTCTGTTCAAGCGCCATCTAC”, 0.856 RPM ratio (pull-down/input); in that of “GATGATTGTTCTCCCAGCTGATGAATTCCTGTTCTCGAGTAAACAAATTTTCCTAATCTTTCTGTTCAAGCGCCATCTAC”, 0.819 RPM ratio (pull-down/input).
As for “GATGATTGTTCTCCCAGCTGATGAATTCGCGATCTCGAGTAAACAAATTTTCCTAATCTTTCTGTTCAAGCGCCATCTAC”, the binding signal was 0.825 RPM ratio (pull-down/input).
In the case of “GATGATTGTTCTCCCAGCTGATGAATTTGCTGCGTCGAGTAAACAAATTTTCCTAATCTTTCTGTTCAAGCGCCATCTAC” it was 1 RPM ratio (pull-down/input); in that of “GATGATTGTTCTCCCAGCTGATGAATTTCATGTGTCGAGTAAACAAATTTTCCTAATCTTTCTGTTCAAGCGCCATCTAC”, 0.922 RPM ratio (pull-down/input); in that of “GATGATTGTTCTCCCAGCTGATGAATTCCTCTCCTCGAGTAAACAAATTTTCCTAATCTTTCTGTTCAAGCGCCATCTAC”, 0.67 RPM ratio (pull-down/input).
With “GATGATTGTTCTCCCAGCTGATGAATTTGTGTAATCGAGTAAACAAATTTTCCTAATCTTTCTGTTCAAGCGCCATCTAC” the figure was 1.97 RPM ratio (pull-down/input); with “GATGATTGTTCTCCCAGCTGATGAATTCTTGAGATCGAGTAAACAAATTTTCCTAATCTTTCTGTTCAAGCGCCATCTAC”, 0.825 RPM ratio (pull-down/input).
In the case of “GATGATTGTTCTCCCAGCTGATGAATTTATCACTTCGAGTAAACAAATTTTCCTAATCTTTCTGTTCAAGCGCCATCTAC”, the binding signal was 1.13 RPM ratio (pull-down/input).
With “GATGATTGTTCTCCCAGCTGATGAATTAACGACGTCGAGTAAACAAATTTTCCTAATCTTTCTGTTCAAGCGCCATCTAC” the figure was 0.864 RPM ratio (pull-down/input); with “GATGATTGTTCTCCCAGCTGATGAATTGCGCTACTCGAGTAAACAAATTTTCCTAATCTTTCTGTTCAAGCGCCATCTAC”, 1.08 RPM ratio (pull-down/input); with “GATGATTGTTCTCCCAGCTGATGAATTAAGCTCGTCGAGTAAACAAATTTTCCTAATCTTTCTGTTCAAGCGCCATCTAC”, 0.813 RPM ratio (pull-down/input).
For the sequence “GATGATTGTTCTCCCAGCTGATGAATTCAGACTATCGAGTAAACAAATTTTCCTAATCTTTCTGTTCAAGCGCCATCTAC”, the binding signal is 0.864 RPM ratio (pull-down/input).
Regarding “GATGATTGTTCTCCCAGCTGATGAATTCTTTTGGTCGAGTAAACAAATTTTCCTAATCTTTCTGTTCAAGCGCCATCTAC”, the binding signal was 1 RPM ratio (pull-down/input).
With “GATGATTGTTCTCCCAGCTGATGAATTTCTGGCTTCGAGTAAACAAATTTTCCTAATCTTTCTGTTCAAGCGCCATCTAC” the figure was 0.839 RPM ratio (pull-down/input); with “GATGATTGTTCTCCCAGCTGATGAATTGCACTAGTCGAGTAAACAAATTTTCCTAATCTTTCTGTTCAAGCGCCATCTAC”, 1.12 RPM ratio (pull-down/input).
With “GATGATTGTTCTCCCAGCTGATGAATTCCCGGTATCGAGTAAACAAATTTTCCTAATCTTTCTGTTCAAGCGCCATCTAC” the figure was 0.838 RPM ratio (pull-down/input); with “GATGATTGTTCTCCCAGCTGATGAATTCTTTTCCTCGAGTAAACAAATTTTCCTAATCTTTCTGTTCAAGCGCCATCTAC”, 0.876 RPM ratio (pull-down/input).
As for “GATGATTGTTCTCCCAGCTGATGAATTTGTAATATCGAGTAAACAAATTTTCCTAATCTTTCTGTTCAAGCGCCATCTAC”, the binding signal was 1.36 RPM ratio (pull-down/input).
As for “GATGATTGTTCTCCCAGCTGATGAATTGCCCCGTTCGAGTAAACAAATTTTCCTAATCTTTCTGTTCAAGCGCCATCTAC”, the binding signal is 0.921 RPM ratio (pull-down/input).
“GATGATTGTTCTCCCAGCTGATGAATTAGATTTATCGAGTAAACAAATTTTCCTAATCTTTCTGTTCAAGCGCCATCTAC”: the binding signal was 1.13 RPM ratio (pull-down/input).
Take “GATGATTGTTCTCCCAGCTGATGAATTGTCGATCTCGAGTAAACAAATTTTCCTAATCTTTCTGTTCAAGCGCCATCTAC”: the binding signal is 0.951 RPM ratio (pull-down/input).
In the case of “GATGATTGTTCTCCCAGCTGATGAATTCCGGACCTCGAGTAAACAAATTTTCCTAATCTTTCTGTTCAAGCGCCATCTAC” it was 0.757 RPM ratio (pull-down/input).
In the case of “GATGATTGTTCTCCCAGCTGATGAATTTCAATGATCGAGTAAACAAATTTTCCTAATCTTTCTGTTCAAGCGCCATCTAC” it was 0.976 RPM ratio (pull-down/input).
